The results in this text go back to paper PMC4336329 (PLoS ONE, 2015).

Among all 310,000 compounds or so, about 14,000 (4.5%) showed an effect of 50% or more. Effects have a minus sign here. The list shows a part of the results.
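Further: peak tail current of the secondary pulse compared with the same well before compound.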

The target in the assay is human ether-à-go-go-related gene (hERG) potassium channel (human, UniProt Q12809). Put plainly: primary screen, population patch clamp on CHO cells stably expressing hERG.
Chain of human ether-à-go-go-related gene (hERG) potassium channel (Q12809 whole entry, looked up): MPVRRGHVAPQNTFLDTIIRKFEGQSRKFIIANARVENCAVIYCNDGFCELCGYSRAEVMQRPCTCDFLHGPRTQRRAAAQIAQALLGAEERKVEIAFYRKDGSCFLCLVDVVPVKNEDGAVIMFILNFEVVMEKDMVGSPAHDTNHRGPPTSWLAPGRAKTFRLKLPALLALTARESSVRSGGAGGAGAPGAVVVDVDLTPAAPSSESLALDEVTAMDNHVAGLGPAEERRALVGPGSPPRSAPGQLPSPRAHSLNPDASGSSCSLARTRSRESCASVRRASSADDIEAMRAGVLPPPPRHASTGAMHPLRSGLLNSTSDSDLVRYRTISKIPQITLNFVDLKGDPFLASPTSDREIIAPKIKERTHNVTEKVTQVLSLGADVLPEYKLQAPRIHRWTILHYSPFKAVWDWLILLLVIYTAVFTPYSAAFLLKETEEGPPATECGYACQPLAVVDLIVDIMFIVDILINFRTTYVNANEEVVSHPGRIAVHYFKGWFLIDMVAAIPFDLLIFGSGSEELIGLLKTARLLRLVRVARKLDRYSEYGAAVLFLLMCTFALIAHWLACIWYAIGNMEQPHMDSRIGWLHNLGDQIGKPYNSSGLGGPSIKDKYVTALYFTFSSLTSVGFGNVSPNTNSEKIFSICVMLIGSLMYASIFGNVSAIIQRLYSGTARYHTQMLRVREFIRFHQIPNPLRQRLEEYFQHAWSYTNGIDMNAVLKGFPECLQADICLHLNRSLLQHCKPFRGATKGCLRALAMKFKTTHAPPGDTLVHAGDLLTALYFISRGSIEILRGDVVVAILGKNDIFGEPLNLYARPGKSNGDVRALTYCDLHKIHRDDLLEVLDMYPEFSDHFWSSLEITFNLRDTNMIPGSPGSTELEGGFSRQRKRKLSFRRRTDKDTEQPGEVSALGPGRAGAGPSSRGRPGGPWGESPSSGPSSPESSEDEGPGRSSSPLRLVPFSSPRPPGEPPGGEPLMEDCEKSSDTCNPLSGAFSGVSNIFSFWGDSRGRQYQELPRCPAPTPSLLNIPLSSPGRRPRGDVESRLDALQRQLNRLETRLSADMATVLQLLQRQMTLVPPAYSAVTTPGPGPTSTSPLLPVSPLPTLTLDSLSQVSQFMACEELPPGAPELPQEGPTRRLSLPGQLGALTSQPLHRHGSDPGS
For the molecule `Cc1ccccc1OCC(=O)NC(=S)Nc1cccc2cc(O)ccc12`, the “hERG current change (%, negative = inhibition) at 10uM” value amounted to 13.8%.

With `CCOC(=O)N1CCN(C(=O)C(CC(C)C)NC(=O)C2CCCCC2)CC1` (centres unmarked), the “hERG current change (%, negative = inhibition) at 10uM” value worked out at 10.8%.

For `Cc1ccc(NC(=O)CCN2CCCCC2)cc1.Cl`, the “hERG current change (%, negative = inhibition) at 10uM” value is on record as -0.243%.

As to `Cc1cccc(-c2csc(N)c2C(=O)OC(C)C)c1`, the “hERG current change (%, negative = inhibition) at 10uM” value was -4.35%.

Consider `COc1ccccc1N(C(=O)CNC(=O)c1ccco1)C(C(=O)NC1CCCC1)c1ccncc1` (centres unmarked), for which the “hERG current change (%, negative = inhibition) at 10uM” value worked out at 8.02%.

For the molecule `Cc1ccc(O)c(N=Cc2sc3ccccc3c2Cl)c1`, the “hERG current change (%, negative = inhibition) at 10uM” value was determined as 12%.

Consider `CCN(CC)C(=O)CC1(c2ccccc2OC)CCOC(C(C)C)C1` (centres unmarked), for which the “hERG current change (%, negative = inhibition) at 10uM” value was -7.16%.

As for `COc1ccc(N2C(=O)CSC2c2cccc(OC)c2OC)cc1` (centres unmarked), the “hERG current change (%, negative = inhibition) at 10uM” value worked out at 0.678%.

Turning to `CS(=O)(=O)c1ccc(Cl)c(NC(=O)COC(=O)CNC(=O)c2ccc3ccccc3c2)c1`, the “hERG current change (%, negative = inhibition) at 10uM” value is listed as -2.54%.

Regarding `COC(=O)c1sccc1NC(=O)COc1ccc(Cl)cc1`, the “hERG current change (%, negative = inhibition) at 10uM” value worked out at 4.06%.

With `Cc1cccc(NC(=O)c2cc3c(=O)n4ccccc4nc3s2)c1`, the “hERG current change (%, negative = inhibition) at 10uM” value turned out to be 10.8%.

Turning to `O=C(Cc1ccccc1)Nc1ccc(NC(=O)c2cccs2)cc1Cl`, the “hERG current change (%, negative = inhibition) at 10uM” value is reported as -32.6%.

Take `CC(=O)NC(NC(=S)N1CCCCCC1)C(Cl)(Cl)Cl` (centres unmarked): the “hERG current change (%, negative = inhibition) at 10uM” value turned out to be 4.06%.

For `CCC(C)(C)NC(=O)C(c1ccc(OC)cc1)N(Cc1ccccc1)C(=O)CCC(=O)Nc1cc(C)on1` (centres unmarked), the “hERG current change (%, negative = inhibition) at 10uM” value was -8.73%.

Turning to `Cc1ccc(CNC(=O)C2CCN(S(=O)(=O)N3CCC4(CC3)OCCO4)CC2)cc1`, the “hERG current change (%, negative = inhibition) at 10uM” value turned out to be 0.58%.

Turning to `CC(NC(=O)c1cc(S(=O)(=O)N2CCCC2)cn1C)c1ccccc1` (centres unmarked), the “hERG current change (%, negative = inhibition) at 10uM” value is listed as -0.137%.

For `CCC(C)C(=O)Nn1c(C2CC2)nc2cc(OC)c(OC)cc2c1=O` (centres unmarked), the “hERG current change (%, negative = inhibition) at 10uM” value is reported as 21.8%.

As to `O=c1cc(-c2cccc3ccccc23)[nH][nH]1`, the “hERG current change (%, negative = inhibition) at 10uM” value came to 16.8%.

With `Cc1cc(C)n(CC(=O)N2c3ccccc3Sc3ccccc32)n1`, the “hERG current change (%, negative = inhibition) at 10uM” value is -8.45%.

Take `C#CCOCCOCCOCCNc1nc(N2CCN(C(=O)[C@H](CCCC[NH3+])n3cc(CCCC)nn3)CC2)nc(N2CCN(C(=O)[C@H](CCCC[NH3+])n3cc(CCCC)nn3)CC2)n1.[Cl-]`: the “hERG current change (%, negative = inhibition) at 10uM” value is 12.2%.

On to `Cc1nc2ccccc2n1CCC(=O)O.Cl`, for which the “hERG current change (%, negative = inhibition) at 10uM” value is reported as -20.3%.

For the molecule `Cc1ccccc1-n1nc2c(c1NC(=O)c1cc3ccccc3o1)CS(=O)(=O)C2`, the “hERG current change (%, negative = inhibition) at 10uM” value was -12.9%.

As to `CC(=O)Nc1ccc(NC(=O)c2sc3nc4n(c(=O)c3c2C)CCCCC4)cc1`, the “hERG current change (%, negative = inhibition) at 10uM” value was -5.6%.

As for `CCCCOP(=O)(OCCCC)C(O)c1ccc(N(C)C)cc1` (centres unmarked), the “hERG current change (%, negative = inhibition) at 10uM” value was 11.4%.

For the molecule `O=C(CCn1cccc1)Nc1ccc(OC(F)(F)F)cc1`, the “hERG current change (%, negative = inhibition) at 10uM” value was determined as 2.32%.

Take `Clc1ccc(N2CCOCC2)nn1`: the “hERG current change (%, negative = inhibition) at 10uM” value is given as 8%.

In the case of `CCN(CC)CCCN(Cc1cc2cc3c(cc2[nH]c1=O)OCO3)C(=S)NCCOC`, the “hERG current change (%, negative = inhibition) at 10uM” value was 5.4%.

On to `Cc1cc2nsnc2c(S(=O)(=O)N2CCN(C)CC2)c1C`, for which the “hERG current change (%, negative = inhibition) at 10uM” value came out at 1.16%.

In the case of `CCOc1ccc(OCC)c(NS(=O)(=O)c2cccc3nsnc23)c1`, the “hERG current change (%, negative = inhibition) at 10uM” value was -2.88%.

As to `CCOc1ccc(NC(=S)NC23CN4CN(CN(C4)C2)C3)cc1`, the “hERG current change (%, negative = inhibition) at 10uM” value came to 36.9%.

For the molecule `COc1ccccc1OCCNC(=O)Nc1ccc(Br)cc1`, the “hERG current change (%, negative = inhibition) at 10uM” value is given as -3.76%.

Take `COc1ccc(CN2CCC(=O)N([C@H](CO)c3ccccc3)CC2)cc1OC`: the “hERG current change (%, negative = inhibition) at 10uM” value is 8.68%.

In the case of `CC(C)(C)c1ccc(Oc2cccc(C3CC(=O)C(C4NCCc5ccccc54)C(=O)C3n3cncn3)c2)cc1` (centres unmarked), the “hERG current change (%, negative = inhibition) at 10uM” value was determined as 1.29%.

Consider `O=C(Nc1ccccc1)[C@@H]1CC=C[C@@H]2CCN(Cc3ccc(Cl)c(Cl)c3)C(=O)[C@@H]21`, for which the “hERG current change (%, negative = inhibition) at 10uM” value is listed as -4.46%.

Take `Cc1cccc(CSc2ncc(CO)n2C)c1`: the “hERG current change (%, negative = inhibition) at 10uM” value turned out to be 3.46%.

Consider `Nc1c(C(=O)N/N=C/c2ccc([N+](=O)[O-])cc2)cnn1-c1ccccc1`, for which the “hERG current change (%, negative = inhibition) at 10uM” value is on record as 13.6%.

Turning to `O=C1/C(=C/c2ccccn2)SC(=S)N1CCc1ccccc1`, the “hERG current change (%, negative = inhibition) at 10uM” value was 13.4%.

On to `CCN(CC)c1ccc(N=Cc2c(O)n(-c3ccc(Cl)cc3)c(=O)[nH]c2=O)cc1`, for which the “hERG current change (%, negative = inhibition) at 10uM” value came to 14.5%.

With `CCCOC(=O)c1c(NC(=O)CCCn2nc([N+](=O)[O-])cc2C)sc(C(=O)OC)c1C`, the “hERG current change (%, negative = inhibition) at 10uM” value is reported as 1.32%.

Regarding `COc1cc2c(cc1OC)C(CCc1ccccc1)=NCC2`, the “hERG current change (%, negative = inhibition) at 10uM” value is reported as -48.1%.

Take `Cc1ccc(CCNC(=O)CNC(=S)N(Cc2ccccc2)Cc2cccnc2)cc1`: the “hERG current change (%, negative = inhibition) at 10uM” value is -55%.

Turning to `CC(C)CCNC(=O)COc1ccc(N(C)S(=O)(=O)c2ccc(F)cc2)cc1`, the “hERG current change (%, negative = inhibition) at 10uM” value is reported as -35.1%.

Regarding `O=C1COc2ccc(C(=O)COC(=O)Cc3ccccc3F)cc2N1`, the “hERG current change (%, negative = inhibition) at 10uM” value is -20.1%.

Regarding `O=C(COc1ccc(C(=O)NCC2CCCO2)cc1)Nc1cccc(C(F)(F)F)c1` (centres unmarked), the “hERG current change (%, negative = inhibition) at 10uM” value is -0.481%.
